Data published in PubChem BioAssay AID504339 (National Center for Advancing Translational Sciences (NCATS), 2011).
Hit rate of the full screen: of about 390,000 compounds, about 17,000 (4.4%) were called active. Inconclusive results, whose numbers are uncertain, are shown with a selection of clear calls. The call rests on the fitted dose curve; in most records, active means well fitted inhibition curve with a large enough effect; inconclusive means small, poorly fitted or top-dose-only effect; inactive means no such curve, though single readings can be large or run the other way. A potency beside an inconclusive call is a rough fit, not a confirmed value.

molecular target: Lysine-specific demethylase 4A (Homo sapiens) (UniProt O75164); experiment: qHTS Assay for Inhibitors of JMJD2A-Tudor Domain; details: AlphaScreen JMJD2A-Tudor / H3K4me3 peptide binding; activity change, negative = inhibition: at 114 µM (top of the series); further: nearly all actives have a fitted effect of over 50% in size
Sequence of UniProt O75164 (O75164 whole entry, looked up, the tested form may be a part): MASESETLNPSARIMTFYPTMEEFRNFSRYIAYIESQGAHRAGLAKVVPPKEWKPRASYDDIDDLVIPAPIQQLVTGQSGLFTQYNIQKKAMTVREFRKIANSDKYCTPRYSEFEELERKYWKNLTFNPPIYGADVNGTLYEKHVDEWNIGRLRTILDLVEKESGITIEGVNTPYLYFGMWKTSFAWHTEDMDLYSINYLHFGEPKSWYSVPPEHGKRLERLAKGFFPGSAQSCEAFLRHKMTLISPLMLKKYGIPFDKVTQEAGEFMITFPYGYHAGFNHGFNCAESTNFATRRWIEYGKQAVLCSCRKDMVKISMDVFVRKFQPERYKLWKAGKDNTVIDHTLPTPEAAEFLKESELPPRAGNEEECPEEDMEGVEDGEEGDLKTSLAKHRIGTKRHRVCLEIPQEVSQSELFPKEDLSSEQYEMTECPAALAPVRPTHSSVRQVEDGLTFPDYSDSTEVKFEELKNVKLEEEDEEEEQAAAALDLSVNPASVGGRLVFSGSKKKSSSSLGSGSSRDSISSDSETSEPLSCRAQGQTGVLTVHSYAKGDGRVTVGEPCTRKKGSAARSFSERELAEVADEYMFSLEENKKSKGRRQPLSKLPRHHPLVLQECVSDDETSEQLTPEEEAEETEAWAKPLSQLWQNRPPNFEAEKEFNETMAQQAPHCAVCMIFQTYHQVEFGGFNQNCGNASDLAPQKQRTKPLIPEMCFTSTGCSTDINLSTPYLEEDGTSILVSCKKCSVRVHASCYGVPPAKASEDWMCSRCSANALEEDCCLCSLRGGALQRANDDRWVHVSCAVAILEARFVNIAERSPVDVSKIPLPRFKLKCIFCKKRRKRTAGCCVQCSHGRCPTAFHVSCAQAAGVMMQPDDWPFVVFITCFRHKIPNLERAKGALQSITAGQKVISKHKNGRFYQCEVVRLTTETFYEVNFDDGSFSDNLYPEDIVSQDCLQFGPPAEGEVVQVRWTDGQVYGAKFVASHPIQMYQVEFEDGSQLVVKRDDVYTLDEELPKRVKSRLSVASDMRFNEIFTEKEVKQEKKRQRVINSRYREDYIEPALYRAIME
On the % scale 0 is the no-effect control and ±100 the full control effect; potency means the concentration at half of the fitted maximal effect; tags describe the fitted curve by direction and shape.

SMILES	Potency	activity change, negative = inhibition
CCN(CC)c1ccc([C@H]2[C@@H]3CCCC[C@]3(O)CCN2CC(=O)NCc2ccco2)cc1	inconclusive: 56.2 µM [inhibitor, partial curve]	
CCOc1ccccc1N1CCN(C(=O)c2cccc(-c3ccc(O)cc3)c2)CC1	inconclusive: 56.2 µM [inhibitor, partial curve]	
O=C(O)C1=C[C@@H](c2ccc(F)cc2)C[C@@H](OCCCCO)O1	inconclusive: 89.1 µM [inhibitor, partial curve]	
COCc1cc(C)n(CC(=O)N/N=C/c2ccc(-c3ccc(Cl)c(C(=O)O)c3)o2)c(=O)c1C#N	inconclusive: 56.2 µM [inhibitor, partial curve]	
COc1cccc(NC(=O)N2CCN3CCCCC3C2)c1 (stereo not drawn)		inactive: -16%
Cc1nc(SCC(=O)Nc2ccc(Cl)cc2[N+](=O)[O-])nc(C)c1C	inconclusive: 31.6 µM [inhibitor, single point]	
CNc1c2cccc(C)c2nc2c(C(=O)NCCN(C)C)cccc12		inactive: -11.1%
O=C(COC(=O)COc1ccc(Cl)cc1)NC1CC1		inactive: 0.338%
COc1ccc(-n2nnnc2SCC(=O)N2CCN(C(=O)c3ccco3)CC2)cc1OC	inconclusive: 3.98 µM [inhibitor, full curve]	
COC(=O)c1cc(O)cc(OC)c1C(=O)c1c(O)cc(C)cc1O	inconclusive: 44.7 µM [inhibitor, partial curve]	
O=[N+]([O-])c1ccc(-c2ccc(/C=N/c3c(-c4ccco4)nc4ccccn34)o2)cc1	inconclusive: 25.1 µM [inhibitor, partial curve]	
Oc1ccc(N=Nc2c(O)ccc3ccccc23)cc1	active: 10 µM	
CN(C1CCCCC1)S(=O)(=O)c1ccc(Cl)c(C(=O)O)c1	inconclusive: 31.6 µM [inhibitor, single point]	
O=C(OCc1nnc(-c2ccc(Cl)cc2)o1)c1ccncc1	inconclusive: 79.4 µM [inhibitor, single point]	
CON(C)C(=O)CC(CNC(=O)OC(C)(C)C)c1ccc(Cl)cc1 (stereo not drawn)		inactive: -12.2%
O=C(NCc1ccco1)c1nc2c(nnn2Cc2ccccc2Cl)c(=O)[nH]1	inconclusive: 79.4 µM [inhibitor, single point]	
CN(C)c1ccc(Nc2c3c4c(cccc4n(C)c2=O)C(=O)c2ccccc2-3)cc1	active: 3.55 µM	
CN1C(=O)C(Cl)(Cl)C(=O)c2ccccc21	active: 28.2 µM	
COC(=O)C(=O)Nc1nnc(COc2ccccc2)s1	inconclusive: 89.1 µM [inhibitor, single point]	
O=C(/C=C/c1ccccc1F)c1cccc([N+](=O)[O-])c1	inconclusive: 39.8 µM [inhibitor, partial curve]	
Cc1cccc(-c2nc(CN3CCCC(C(=O)N4CCN(c5cc(Cl)ccc5C)CC4)C3)c(C)o2)c1 (stereo not drawn)		inactive: -33.3%
COc1ccccc1N1CCN(CCCOc2ccc(F)cc2)CC1	active: 2.24 µM	
Oc1ccc2cccnc2c1	inconclusive: 6.31 µM [inhibitor, single point]	

SMILES	Potency	activity change, negative = inhibition
Cc1cc(/C=C2\NC(=S)N(C)C2=O)ccc1N1CCCC1	active: 89.1 µM	
COc1ccc(OC)c(NC(=O)c2ccc(CN3CCc4ccccc4C3)cc2)c1	inconclusive: 56.2 µM [inhibitor, partial curve]	
Cc1ccc(CNC(=O)C23CN(Cc4ccccc4)CC2C(c2ccc([N+](=O)[O-])cc2)=NO3)o1 (stereo not drawn)	inconclusive: 56.2 µM [inhibitor, partial curve]	
CCOC(=O)C1=C(C)NC2=C(C1c1ccc([N+](=O)[O-])cc1)S(=O)(=O)c1ccccc12 (stereo not drawn)	inconclusive: 22.4 µM [inhibitor, full curve, poor fit]	
COc1ccccc1NC(=O)CN1C(=O)COc2ccc(S(=O)(=O)N3CCCCCC3)cc21	inconclusive: 20 µM [inhibitor, full curve]	
COc1ccc(OC)c(C2=NS(=O)(=O)N(C)C(C(=O)NCc3cccs3)=C2)c1	active: 22.4 µM	
CC(=O)OCCCNc1cc(Sc2ccc(C)cc2)c2nonc2c1[N+](=O)[O-]	inconclusive: 112 µM [inhibitor, partial curve, poor fit]	
O=C(CN1CCC(NC(=O)c2ccccc2F)CC1)Nc1ccc2c(c1)OCCO2	inconclusive: 28.2 µM [inhibitor, single point]	
COc1ccc(C2c3c(n(CCCc4ccccc4)cnc3=N)Oc3ccc4ccccc4c32)cc1OC (stereo not drawn)	inconclusive: 50.1 µM [inhibitor, partial curve]	
N#Cc1ccccc1S(=O)(=O)N1CCN(CC(O)COc2ccccc2F)CC1 (stereo not drawn)	active: 3.16 µM	
CC1(C)Cc2c(sc3ncn4c(=S)[nH]nc4c23)CO1		inconclusive: -92.8% [inhibitor]
O=C(CSc1nc(-c2ccccc2)nn1C(=O)c1ccccc1)Nc1cccc([N+](=O)[O-])c1	inconclusive: 28.2 µM [inhibitor, full curve, poor fit]	
COc1cc(C(=O)NCc2nnc(SCC(=O)Nc3nccs3)o2)cc(OC)c1OC	inconclusive: 89.1 µM [inhibitor, single point]	
NC(=O)[C@@H]1CCCCNc2c(F)cc([N+](=O)[O-])cc2C(=O)N[C@@H](CC(=O)O)C(=O)N[C@@H](CCC(=O)O)C(=O)N1	inconclusive: 79.4 µM [inhibitor, partial curve]	
Cc1ccc2oc(-c3cccc(N)c3)nc2c1	inconclusive: 89.1 µM [inhibitor, single point]	
CC(=O)c1ccc(NC(=O)COC(=O)c2ccc(F)cc2F)cc1		inactive: 3.81%
Cc1ccc(C(=O)N/C(=C/c2ccco2)C(=O)NC2CCS(=O)(=O)C2)cc1 (stereo not drawn)		inactive: -17%
O=C(NC(=S)Nc1ccc2nc[nH]c2c1)c1ccccc1		inactive: -19.3%
Cc1ccccc1CN1CCN(Cc2ccccc2C(F)(F)F)CC1	active: 2.82 µM	
CN(C)CCCN(C(=O)COc1ccc(Cl)cc1)c1nc2cc3c(cc2s1)OCCO3	inconclusive: 56.2 µM [inhibitor, partial curve]	
CCOC(=O)CCCCC(=O)c1[nH]c(=O)[nH]c1CSc1nnc2c3ccccc3n(C(C)C)c2n1	inconclusive: 39.8 µM [inhibitor, single point]	
Cc1cc(-c2n[nH]c(=S)n2/N=C/c2c[nH]c3ccccc23)n[nH]1	active: 10 µM	
COc1ccc(NC(=O)c2c(C)oc3ccc(O)c(CN4CCC(C)CC4)c23)cc1Cl	inconclusive: 50.1 µM [inhibitor, partial curve]	

SMILES	Potency	activity change, negative = inhibition
CCOC(=O)c1c(NC(=O)C(C)Sc2cccc[n+]2[O-])sc2c1CCN(Cc1ccccc1)C2 (stereo not drawn)	inconclusive: 79.4 µM [inhibitor, partial curve]	
O=C(NCc1ccco1)C1CCN(c2ccc(S(=O)(=O)N3CCOCC3)cc2[N+](=O)[O-])CC1	inconclusive: 89.1 µM [inhibitor, partial curve]	
COc1ccc(CCNC(=O)c2ccc3c(c2)N(Cc2ccccc2)C(=O)c2ccccc2S3=O)cc1OC (stereo not drawn)		inactive: -32.7%
CS(=O)(=O)Nc1ccc(C2=NN(C(=O)c3ccco3)C(c3ccc(F)cc3)C2)cc1 (stereo not drawn)		inactive: -19.4%
CC(=O)N1CCN(CC(=O)Nc2ccc(C)c(F)c2)CC1	active: 17.8 µM	
CCOc1ccc(NC(=O)c2c(Nc3ccccc3C)sc(C(=O)c3ccccc3)c2N)cc1	inconclusive: 31.6 µM [inhibitor, full curve]	
CCOC(=O)C1=C(CN2CCCCCC2)NC(=O)NC1c1cccc([N+](=O)[O-])c1 (stereo not drawn)		inactive: -17.5%
COc1cccc(CNn2cn[nH]c2=S)c1OCc1ccccc1	inconclusive: 50.1 µM [inhibitor, partial curve]	
Cc1c(Cl)cccc1-c1ccc(CNCCSc2nnnn2-c2ccccc2)o1		inactive: 2.83%
CS(=O)(=O)c1ccc(C(=O)NCCN2C(=O)S/C(=C\c3cccnc3)C2=O)cc1[N+](=O)[O-]	inconclusive: 50.1 µM [inhibitor, partial curve]	
CCCCCCC(=O)N=Nc1c(O)[nH]c2ccc([N+](=O)[O-])cc12	inconclusive: 50.1 µM [inhibitor, partial curve]	
CC(=O)NC12CC3CC(C1)CC(C(=O)Nc1cccc(S(=O)(=O)N4CCCCCC4)c1)(C3)C2		inactive: -19.5%
Cc1cc(Cl)ccc1N=c1ssnc1Cl	active: 79.4 µM	
O=C(CSc1nnc2n1CCCN2)c1ccc([N+](=O)[O-])cc1	inconclusive: 15.8 µM [inhibitor, partial curve]	
CC[C@H](C)[C@@H](CNC)NC[C@@H](Cc1ccc(O)cc1)NCC(C)(C)C	inconclusive: 3.98 µM [inhibitor, single point]	
Cn1c2ccccc2c2cnn(CC(=O)NCCCN3CCCCC3)c(=O)c21		inactive: -1.34%
O=C(COC(=O)c1c2c(nc3ccccc13)CCN(Cc1ccccc1)C2)Nc1c(F)cccc1F	inconclusive: 6.31 µM [inhibitor, full curve, poor fit]	
CC1Cc2ccccc2N1Cc1nc2cc(Cl)ccc2c(=O)[nH]1 (stereo not drawn)	inconclusive: 79.4 µM [inhibitor, partial curve]	
C/C(N)=C(/C#N)C(=O)CSc1ncnc2ccccc12	inconclusive: 35.5 µM [inhibitor, partial curve]	
CC(=O)c1cccc(NC(=O)CSc2nnc3ccc(-c4ccc(Br)cc4)nn23)c1		inactive: -13%
COc1cc(-c2nc3ccc(C)cn3c2Nc2ccc3c(c2)OCCO3)ccc1O	inconclusive: 15.8 µM [inhibitor, full curve]	
CC(=O)c1cccc(-n2c(CCC(=O)O)ccc2-c2ccc(C)cc2)c1		inactive: -35.5%
